The record followed here is publication PMC7864062.

Sequences of proteins named here, by UniProt entry; tags and fusion partners are left off. A change or cut given only in a name is not applied to a line headed by its entry.
UniProt Q8N4G2: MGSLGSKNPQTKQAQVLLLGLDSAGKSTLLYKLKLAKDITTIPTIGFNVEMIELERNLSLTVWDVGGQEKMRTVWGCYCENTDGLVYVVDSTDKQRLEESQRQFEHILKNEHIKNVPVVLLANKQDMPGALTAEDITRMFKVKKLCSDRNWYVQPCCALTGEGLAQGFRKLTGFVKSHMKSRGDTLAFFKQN

These are yes or no findings as the source states them, for the method shown. In cells and extracts the contact can be indirect. Some entries that bind do so weakly or less than the wild type. Where a sequence is shown, tags or fusion partners need not be part of it.

What all share (assay): co-IP; GFP trap beads incubated with cell lysates from HeLa cells expressing the GFP-tagged constructs and HA-Sys1; bound proteins analyzed by Western blotting
(Immunoblotting shows a protein as a band on a membrane.)

In test [1] the target is T1, Arfrp1^1–17–GFP with Y2A mutation on the Arfrp1 helix (human) (UniProt Q13795).
T1 sequence: MATLLSGLYKYMFQKDE

In test [2] the target is T2, Arfrp1^1–17–GFP (human) (UniProt Q13795).
T2 sequence: MYTLLSGLYKYMFQKDE

The target of test [3] is T3, Arfrp1^1–17-Arl14^18-192–GFP (human) (UniProt Q13795+Q8N4G2).
T3 sequence: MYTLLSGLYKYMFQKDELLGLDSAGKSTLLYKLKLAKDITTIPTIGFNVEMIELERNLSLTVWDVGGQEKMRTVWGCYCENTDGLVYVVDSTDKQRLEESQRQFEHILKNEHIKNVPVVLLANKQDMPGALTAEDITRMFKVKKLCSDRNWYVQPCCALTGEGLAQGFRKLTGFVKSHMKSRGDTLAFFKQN

Test [4] concerns the target T4, Arfrp1^Y2A–GFP (human) (UniProt Q13795).
T4 sequence: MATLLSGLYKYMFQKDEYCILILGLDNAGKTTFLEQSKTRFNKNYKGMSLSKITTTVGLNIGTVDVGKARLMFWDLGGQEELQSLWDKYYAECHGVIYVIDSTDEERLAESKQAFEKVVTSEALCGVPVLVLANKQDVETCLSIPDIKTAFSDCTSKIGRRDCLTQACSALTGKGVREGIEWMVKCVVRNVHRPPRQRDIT

Test [5] concerns the target T5, Arfrp1^1–17-Arl14^18-192–GFP with Y2A mutation on the Arfrp1 helix (human) (UniProt Q13795+Q8N4G2).
T5 sequence: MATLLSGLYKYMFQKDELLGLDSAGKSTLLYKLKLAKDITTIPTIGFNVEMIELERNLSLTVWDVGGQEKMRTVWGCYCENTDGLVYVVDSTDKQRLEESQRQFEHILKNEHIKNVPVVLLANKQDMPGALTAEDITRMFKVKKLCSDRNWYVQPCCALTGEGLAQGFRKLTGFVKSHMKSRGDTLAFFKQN

Test [6] deals with T6, GFP-tagged Arfrp1 (Arfrp1–GFP) (human) (UniProt Q13795).
T6 sequence: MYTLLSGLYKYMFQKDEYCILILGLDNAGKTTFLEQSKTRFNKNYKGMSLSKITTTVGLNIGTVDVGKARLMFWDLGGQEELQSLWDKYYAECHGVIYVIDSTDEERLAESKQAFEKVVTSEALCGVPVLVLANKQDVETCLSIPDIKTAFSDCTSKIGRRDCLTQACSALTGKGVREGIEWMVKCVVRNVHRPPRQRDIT

B1: Human Sys1 with 3× HA tag at its C terminus (protein, UniProt Q8N2H4 1-156)
chain: MAGQFRSYVWDPLLILSQIVLMQTVYYGSLGLWLALVDGLVRSSPSLDQMFDAEILGFSTPPGRLSMMSFILNALTCALGLLYFIRRGKQCLDFTVTVHFFHLLGCWFYSSRFPSALTWWLVQAVCIALMAVIGEYLCMRTELKEIPLNSAPKSNV
In the case of B1, the binding entry in test [1] was “no binding”; in test [2], “binds”; in test [3] it was “binds”; in test [4], “no binding”; in test [5] it was “no binding”; in test [6] it was “binds”.
